Experimental data: PubChem BioAssay (NCATS)
Inconclusive means that the source gave no clear call. Such entries were picked first, then a sample of the others. A potency beside an inconclusive call is a rough fit, not a confirmed value. More than one record can exist for a structure, and the calls need not agree. Calls of active or inactive are those of the source. Calls come from the whole dose curve; as a rule, active = well fitted cell-killing curve with a large enough effect; inconclusive = small, poorly fitted or top-dose-only effect, or effect the other way; inactive = flat fitted curve, though single readings scatter. Square brackets hold non-standard residues; d marks the D form. Peptide text beside a SMILES is read from it. ξ: configuration not given here. ξLac(3-iPr) = CC(C)CC(O)C(=O)O; NMeV = CN[CH](C(=O)O)C(C)C; NMeA = CN[CH](C)C(=O)O; βAla = NCCC(=O)O

Experiments:
Assay in all cases: Primary qHTS to identify gynecologic anti-cancer compounds using libraries of approved drugs and bioactive compounds (AID 1345084); note: nearly all actives have a fitted effect of over 55% in size
Conditions in all cases: Gynecologic cancer cell panel viability, ATPlite luminescence, 48 h; series mostly up to 57.5 µM
PA-1 = tested on: PA-1
Method in brief: (§1)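 In this quantitative HTS, cell killing is estimated from loss of ATP-dependent luciferase light. Cells see five compound concentrations over a 48 h exposure.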

SKOV3 = tested on: SKOV3
Method in brief: as §1

Tov-21-G = tested on: Tov-21-G
Method in brief: as §1

Tov112D = tested on: Tov112D
Method in brief: as §1
Potency is the fitted concentration of half-maximal effect; tags give direction and shape of the fitted curve.

| Structure (SMILES) | Potency (PA-1) | Potency (SKOV3) | Potency (Tov-21-G) | Potency (Tov112D) |
| --- | --- | --- | --- | --- |
| Nc1ccc(N=Nc2ccccc2)cc1 | inconclusive: 56.2 µM [cytotoxic, partial curve, poor fit] | inconclusive: 31.6 µM [cytotoxic, partial curve, poor fit] | inconclusive: 89.1 µM [cytotoxic, partial curve, poor fit] | inconclusive: 44.7 µM [cytotoxic, single point] |
| C[C@]12CC[C@H](O)C[C@@H]1CC[C@@H]1[C@@H]2CC[C@]2(C)[C@@H](C3=CC(=O)OC3)CC[C@]12O | inconclusive: 14.1 µM [cytotoxic, partial curve, poor fit] | inconclusive: 14.1 µM [cytotoxic, single point] | inconclusive: 7.94 µM [cytotoxic, partial curve, poor fit] | inconclusive: 7.08 µM [cytotoxic, partial curve, poor fit] |
| C[C@]12CC[C@H](OC3OC(CO)C(O)C(O)C3OC3OC(CO)C(O)C(O)C3O)C[C@@H]1CC[C@@H]1C2CC[C@]2(C)[C@@H](C3=CC(=O)OC3)CC[C@]12O (some centres not stated) | inactive | inactive | inconclusive: 12.6 µM [cytotoxic, single point] | active: 7.08 µM |
| CCCN(CCC)c1c([N+](=O)[O-])cc(S(N)(=O)=O)cc1[N+](=O)[O-] | inconclusive: 89.1 µM [cytotoxic, single point] | inconclusive: 39.8 µM [cytotoxic, partial curve, poor fit] | inconclusive: 63.1 µM [cytotoxic, single point] | inconclusive: 31.6 µM [cytotoxic, single point] |
| C=C1[C@@H](C)C2[C@H](Cc3ccccc3)NC(=O)[C@@]23C(/C=C/C[C@H](C)C[C@@](C)(O)/C=C/[C@@H]3OC(C)=O)[C@@H]1O (some centres not stated) | active: 3.98 µM | inconclusive: 11.2 µM [cytotoxic, partial curve, poor fit] | inconclusive: 0.398 µM [cytotoxic, full curve] | inconclusive: 0.794 µM [cytotoxic, partial curve, poor fit] |
| COc1nn(CSP(=S)(OC)OC)c(=O)s1 | inconclusive: 70.8 µM [cytotoxic, single point] | inconclusive: 70.8 µM [cytotoxic, single point] | inconclusive: 70.8 µM [cytotoxic, partial curve, poor fit] | inconclusive: 70.8 µM [cytotoxic, single point] |
| CC[C@@H](C)[C@H]1C(=O)O[C@H](C(C)C)C(=O)N(C)[C@@H]([C@@H](C)CC)C(=O)O[C@H](C(C)C)C(=O)N(C)[C@@H]([C@H](C)CC)C(=O)O[C@H](C(C)C)C(=O)N1C | inconclusive: 8.91 µM [cytotoxic, single point] | inconclusive: 11.2 µM [cytotoxic, single point] | inconclusive: 12.6 µM [cytotoxic, single point] | inconclusive: 12.6 µM [cytotoxic, single point] |
| CC[C@]1(O)CC[C@H]2[C@@H]3CCC4=CCCC[C@@H]4[C@H]3CC[C@@]21C | inconclusive: 39.8 µM [cytotoxic, partial curve, poor fit] | inconclusive: 2.51 µM | inconclusive: 1.78 µM | inconclusive: 1.78 µM |
| CC[C@H]1C[C@@H]2CC[C@@H](O2)[C@@H](C)C(=O)O[C@H](CC)C[C@H]2CC[C@H](O2)[C@H](C)C(=O)O[C@@H](C)C[C@@H]2CC[C@@H](O2)[C@@H](C)C(=O)O[C@H](CC)C[C@H]2CC[C@H](O2)[C@H](C)C(=O)O1 | active: 0.178 µM | active: 0.251 µM | inconclusive: 0.708 µM [cytotoxic, full curve] | inconclusive: 0.398 µM [cytotoxic, full curve] |
| CN[C@@H]1C[C@H]2O[C@@](C)([C@@H]1OC)n1c3ccccc3c3c4c(c5c6ccccc6n2c5c31)C(=O)NC4 | active: 0.251 µM | active: 0.316 µM | inconclusive: 7.94 µM | active: 0.891 µM |
| CO/C=C(/C(=O)OC)c1ccccc1Oc1cc(Oc2ccccc2C#N)ncn1 | inconclusive: 31.6 µM [cytotoxic, partial curve] | active: 7.94 µM | inconclusive: 31.6 µM [cytotoxic, single point] | inconclusive: 31.6 µM [cytotoxic, single point] |
| Fc1ccc(C(OCCN2CCN(CCCc3ccccc3)CC2)c2ccc(F)cc2)cc1 | inconclusive: 28.2 µM [cytotoxic, single point] | inconclusive: 35.5 µM [cytotoxic, partial curve, poor fit] | inconclusive: 35.5 µM [cytotoxic, single point] | inconclusive: 31.6 µM [cytotoxic, single point] |
| CN1Cc2c(ccc3c2OCO3)[C@@H]2[C@H]1c1cc3c(cc1C[C@@H]2O)OCO3 | active: 4.47 µM | inconclusive: 5.01 µM [cytotoxic, single point] | inconclusive: 3.98 µM [cytotoxic, full curve] | active: 3.55 µM |
| CN(C)C(=S)SSC(=S)N(C)C | inconclusive: 1.41 µM [cytotoxic, full curve, poor fit] | active: 1.58 µM | inconclusive: 7.94 µM [cytotoxic, partial curve, poor fit] | active: 12.6 µM |
| COc1cc2c(c(OC)c1OC)-c1ccc(SC)c(=O)cc1[C@@H](NC(C)=O)CC2 | inconclusive: 12.6 µM | inconclusive: 0.891 µM | inconclusive: 126 µM | inconclusive: 89.1 µM |
| C/C(=C\c1csc(C)n1)[C@@H]1C[C@@H]2O[C@@H]2CCC[C@H](C)[C@H](O)[C@@H](C)C(=O)C(C)(C)[C@@H](O)CC(=O)O1 | inconclusive: 10 µM | inconclusive: 10 µM [cytotoxic, partial curve, poor fit] | inconclusive: 0.501 µM | inconclusive: 3.16 µM |
| C[C@]12CC[C@H](O)CC1=CC[C@@H]1C2CC[C@]2(C)[C@@H](C3=CC(=O)OC3)CC[C@]12O (some centres not stated) | inconclusive: 20 µM [cytotoxic, single point] | inconclusive: 11.2 µM [cytotoxic, partial curve, poor fit] | active: 10 µM | active: 7.08 µM |
| C=C(C)[C@H]1Cc2c(ccc3c2O[C@@H]2COc4cc(OC)c(OC)cc4[C@@H]2C3=O)O1 | active: 1.26 µM | active: 0.282 µM | active: 3.98 µM | active: 1.78 µM |
| CC(=O)OC[C@]12C[C@H](OC(=O)CC(C)C)C(C)=C[C@H]1O[C@@H]1[C@H](O)[C@@H](O)[C@@]2(C)[C@]12CO2 | inconclusive: 0.126 µM [cytotoxic, full curve, poor fit] | inconclusive: 0.158 µM [cytotoxic, full curve, poor fit] | active: 0.355 µM | active: 0.316 µM |
| Oc1cc(Cl)ccc1Oc1ccc(Cl)cc1Cl | inconclusive: 39.8 µM [cytotoxic, single point] | active: 35.5 µM | inconclusive: 44.7 µM [cytotoxic, single point] | inconclusive: 39.8 µM [cytotoxic, partial curve, poor fit] |
| CCCOC(=O)Cc1ccc(OCC(=O)N(CC)CC)c(OC)c1 | inactive | inconclusive: 0.891 µM [cytotoxic, single point] |  | inactive |
| O=c1[nH]c2ccc(Cl)cc2c(N[C@@H]2CN3CCC2CC3)c1-c1nc2ccccc2[nH]1 | active: 2.24 µM | inconclusive: 0.141 µM [cytotoxic, full curve, poor fit] | inconclusive: 0.355 µM [cytotoxic, full curve, poor fit] | active: 25.1 µM |
| COC1CC(O[C@H]2CC[C@]3(C=O)C4CC[C@]5(C)[C@@H](C6=CC(=O)OC6)CC[C@]5(O)[C@@H]4CC[C@@H]3C2)OC(C)C1O[C@@H]1O[C@H](CO)[C@@H](O[C@@H]2O[C@H](CO)[C@@H](O)[C@H](O)[C@H]2O)[C@H](O)[C@H]1O (some centres not stated) | active: 0.447 µM | active: 0.398 µM | active: 0.224 µM | active: 0.112 µM |
| c1ccc2c(c1)Sc1ccccc1N2CC1CN2CCC1CC2 (configuration not stated) | inconclusive: 39.8 µM [cytotoxic, single point] | active: 28.2 µM | inconclusive: 28.2 µM [cytotoxic, single point] | inconclusive: 25.1 µM [cytotoxic, single point] |
| CCC(C)C1NC(=O)C2CCCN2C(=O)C(CC(C)C)OC(=O)CCNC(=O)C(C)N(C)C(=O)C(C(C)C)N(C)C1=O (configuration not stated) (cyclo([ξLac(3-iPr)]PI[NMeV][NMeA][βAla]); configuration not given here) | inconclusive: 12.6 µM [cytotoxic, single point] | inconclusive: 3.55 µM [cytotoxic, partial curve, poor fit] | inconclusive: 3.16 µM [cytotoxic, partial curve] | inconclusive: 4.47 µM [cytotoxic, partial curve] |
| C=C1[C@@H](C)[C@H]2[C@H](Cc3ccccc3)NC(=O)[C@]23OC(=O)/C=C/C(=O)CCC[C@@H](C)C/C=C/[C@H]3[C@@H]1O | active: 20 µM | active: 25.1 µM |  | active: 15.8 µM |
